Laboratory results published in the supplement of paper PMC10338343.
± gives the standard deviation. This is a selection; strong and weak results do not stand in their true shares.

The sequences below were run on MIWI (PIWIL1) piRISC loaded with piRNA #1 (30 nt) (assay: pre-steady-state target cleavage rate (min^-1); MIWI and MILI are mouse PIWI proteins and EfPiwi is from a freshwater sponge; tags in brackets are library labels; higher = faster piRNA-guided slicing of the target). Conditions: guide: piRNA #1 5'p-UGAGGUAGUAGGUUGUAUAGUAUCCAGAGG; auxiliary factor: 500 nM mouse GTSF1.
Summary of the method: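 Cleave-'n-Seq measured uncleaved targets by sequencing after a transcribed, DNA-blocked target RNA library […] was mixed with 1 nM active affinity-purified piRISC holding one synthetic guide, with or without 500 nM GTSF1 partner protein, at 33 °C in HEPES–potassium acetate buffer for 0–8 or 0–960 min. Counts were normalised to depth and to weakly complementary targets, three trials were pooled, and k3 was capped at 0.0001 min^-1. A burst-and-steady-state fit gave the pre-steady-state cleavage rate.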
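Further: 1 nM active piRISC with 0.1 nM target library at 33 °C single turnover.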

Sequence	pre-steady-state target cleavage rate
GGAGACCAUACUAUACAACCUAGAACCUCA	0.0693 ± 0.016
CCUCAGGAUACUAUAGAACCUACUACCUCA	0.504 ± 0.051
GGAGACCAUUCUAUACAACCAACUACCUCA	0.0328 ± 0.0046
GGAGACCUUACUAUAAACCUACUACCUCA	0.00519 ± 0.0021
GGAGACCUAUCUAUAGAACCUACUACCACA	0.193 ± 0.027
GGAGACCAUACUAUACAACCUAGUUCCUCA	0.229 ± 0.028
GGAGUGGAUUCUAUACAACCAACUACCUCA	0.118 ± 0.0085
GGAGACCUAACUUUACAACCUAGUACCUCA	0.155 ± 0.042
GGAGAGCAUACUAUAGAACCUACUACCUCA	0.877 ± 0.047
GGAGAGGUAUCUAUACAACCUACUACCUCA	0.488 ± 0.043
GGACUGGAUACUAUACAACCUACCUACCUCA	1.06 ± 0.094
GGAGACGAUACUAUACAACCUACUACGACA	0.58 ± 0.055
GGACUGCAUACUAUACAACCUACUAGCUCA	0.0482 ± 0.0093
GGAGACGAUACUAUACUACCUACAACCUCA	0.683 ± 0.057
CCUCUGGAUACUAUACAACCGUACUACCUCA	0.00658 ± 0.004
GGAGACCUAUGAAUACAACCUACUUGGUCA	< 0.0001
GGAGACCUAUAUAUACAACCUACUACCUCA	0.175 ± 0.021
GGAGAGGAUACUAUAGAACCUACUUCCUCA	0.00722 ± 0.0046
GGAGACCUAUGAUAUGUACCUACUACCAUCA	< 0.0001
GGAGACCUAUGAUAUGUUCCUACUACGUGA	< 0.0001
GGAGUGGAUACUAUACAACCUACUACCUCU [g2:g26:cont:t1U]	1.4 ± 0.09
GGAGACCUAAGUAUACAACCUACUACCUCA	0.214 ± 0.033
GGAGUGGAUCUAUACAACCUACUACCUCA	1.58 ± 0.1
CGUCUGGAUACUUUACAACCUACUACCUCA	1.86 ± 0.12
